{"source": "the supplement of paper PMC11417369", "note": "± gives the standard deviation of the averaged measurements. The list shows a part of the results.", "data": [{"test_system": "PfAP2-LT AP2 domain (GST-tagged)", "assay": "gcPBM binding intensity (ln(normalized median fluorescence intensity)); higher = stronger DNA binding", "method_in_brief": "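GST-fused DNA-binding domains of P. falciparum, expressed in E. coli, were applied at about 25 μg on average for 1 h to an Agilent 4 × 180k array of primer-extended double-stranded 36-bp intergenic genomic probes and negative controls. Binding intensity is the highest Masliner-normalised natural-log median intensity across replicate spots of either probe orientation, measured with Alexa488 anti-GST antibody and a 488 nm scan.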", "values": [{"sequence": "TATATATAAGATTGATGTACGATTTTGGTGTCTTAT [XGTACX_site2611]", "gcPBM binding intensity (ln)": "8.82 ± 0.47"}, {"sequence": "AACATATGATTAAACTGTACAAGAAAAATATAACAT [XGTACX_site4477]", "gcPBM binding intensity (ln)": "9.07 ± 0.48"}, {"sequence": "GAGAGGATCATCAATTCACACACATAAAAATGAAGT [CACACA_site9010]", "gcPBM binding intensity (ln)": "9.33 ± 0.45"}, {"sequence": "TAAAAATATTATAATGCATGCAAAATATTGTTATAA [TGCATGCA_site244]", "gcPBM binding intensity (ln)": "8.73 ± 0.38"}, {"sequence": "ATAGTTTTTCCAATTCAAAAAAAAAAAAAAAAAAAA [CACACA_negctrl_site969]", "gcPBM binding intensity (ln)": "7.96 ± 0.5"}, {"sequence": "AAAGTATAAATAAATACACACATATTTATTTATATA [CACACA_site7375]", "gcPBM binding intensity (ln)": "8.89 ± 0.42"}, {"sequence": "AGAAAAAAATAATGTACACACACATATATGTTTATA [CACACA_site7946]", "gcPBM binding intensity (ln)": "9.14 ± 0.36"}, {"sequence": "ATATACAAAGGATTAACACACATATTATTATATATA [CACACA_site1880]", "gcPBM binding intensity (ln)": "8.91 ± 0.49"}, {"sequence": "TATTTTTTAAAAAAATGTCATAAAATTTCTTTTTTC [XGTACX_negctrl_site271]", "gcPBM binding intensity (ln)": "8.04 ± 0.56"}, {"sequence": "GTAATTTTATATGGTTGTACATATATATATATATAT [XGTACX_site6659]", "gcPBM binding intensity (ln)": "9.61 ± 0.042"}, {"sequence": "ATATATATATATATGTGTACTTATATATTTAAAAAA [XGTACX_site1761]", "gcPBM binding intensity (ln)": "9.105 ± 0.064"}, {"sequence": "TTATACCTGATTTAGGTGCTATAAATTTGTGTTTTT", "gcPBM binding intensity (ln)": "8.71 ± 0.42"}, {"sequence": "ATATATATATATATATATATTTATATGTGAAAACCC [CACACA_negctrl_site845]", "gcPBM binding intensity (ln)": "9.4 ± 0.085"}, {"sequence": "CGCATAAAGACAAGAACACACATATATATTGTAGTA [CACACA_site5938]", "gcPBM binding intensity (ln)": "9.01 ± 0.39"}, {"sequence": "CAACAACAAAAAAAAAAATAATAATAATAAAAAATA [TGCATGCA_negctrl_site271]", "gcPBM binding intensity (ln)": "8.71 ± 0.5"}, {"sequence": "TTCCTATTTCCTATGTGTACTTATAAATAAGTGTCT [XGTACX_site3725]", "gcPBM binding intensity (ln)": "8.88 ± 0.54"}, {"sequence": "GAAATTATAAATTGGACACACACATAAAAAATATGT [CACACA_site7957]", "gcPBM binding intensity (ln)": "9.31 ± 0.38"}, {"sequence": "TCCGCATGTACATGGGTGCACATAACACCCATTTAA [GTGCAC_site9881]", "gcPBM binding intensity (ln)": "8.66 ± 0.43"}, {"sequence": "TAAATGTCTGTTAATGCACACGATATGTCTATATAT [CACACA_site2352]", "gcPBM binding intensity (ln)": "9.11 ± 0.36"}, {"sequence": "CTTTCTATATAAAATCGTACATATATAATATTATAT [XGTACX_site5807]", "gcPBM binding intensity (ln)": "8.62 ± 0.4"}, {"sequence": "TATATTAAGAAACACACACACATATATATATATATA [CACACA_site1609]", "gcPBM binding intensity (ln)": "9.82 ± 0.23"}, {"sequence": "ATTTTTACATAGGAAGCATGCATATTTTAAAAATAA [TGCATGCA_site1046]", "gcPBM binding intensity (ln)": "8.52 ± 0.4"}, {"sequence": "CTAACACTAATTTTTTGTACACAATATGTAAATAAA [XGTACX_site6424]", "gcPBM binding intensity (ln)": "8.64 ± 0.4"}, {"sequence": "CATGTGTTCTATATTTATGTCTAACTTTTTAATTAA [CACACA_negctrl_site904]", "gcPBM binding intensity (ln)": "8.64 ± 0.46"}]}]}
